This note sets out measurements from the supplement of paper PMC10670038.

The structures appear in SMILES notation. Several values for one entry are separate records, joined by “and”; a condition that tells them apart may be missing. Equal entries are not always repeated. Structures can show the parent of a compound that is named as a salt. ± gives the standard deviation of the averaged measurements. The full ranking holds about 2,000 compounds; the median of “relative cell viability vs DMSO, compound alone” is about 1.1, and the lowest 2% start at about 0.29. This is one part of the list.

This test has as its system TE10. Put plainly: relative cell viability vs DMSO, compound alone (fraction); TE10 is an esophageal squamous carcinoma line; higher = less cytotoxic. The settings on record: 2 µM; 48 h. As to the method: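 TE10 ESCC cells (1,000/well, 384-well plates) were treated with Selleck bioactive library compounds at 2 uM alone for 48 h. Viability was read by CellTiter-Glo and expressed relative to DMSO wells. Two technical replicates (A, B).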
In turn, `Clc1ccc(CCC(Cn2ccnc2)Sc2c(Cl)cccc2Cl)cc1` (stereo not given) [Butoconazole nitrate] registered a relative cell viability of 0.8597 ± 0.0014.

`CN(C)C(=O)Nc1cccc(-c2ccc(N(C)C)cc2)c1` [Atglistatin] registered a relative cell viability of 0.871 ± 0.024.

The compound `Cc1cc2c(cc1CC(=O)c1sccc1S(=O)(=O)Nc1onc(C)c1Cl)OCO2` [Sitaxentan sodium] displayed a relative cell viability of 1.06 ± 0.022.

`O=C(NC[C@H]1CN(c2ccc(N3CCOCC3=O)cc2)C(=O)O1)c1ccc(Cl)s1` [Rivaroxaban] yielded a relative cell viability of 1.04 ± 0.076.

The compound `C[C@@H]1C[C@H]2[C@@H]3C[C@H](F)C4=CC(=O)C=C[C@]4(C)[C@@]3(F)[C@@H](O)C[C@]2(C)[C@@]1(O)C(=O)CO` [Flumethasone] had a relative cell viability of 0.96 ± 0.012.

On to `c1ccc(NCc2ccc(CNc3ccccn3)cc2)nc1`, for which the relative cell viability worked out at 1.085 ± 0.0086.

As to `COC(=O)c1ccc2c(c1)nc(NC(=O)c1ccccc1)n2CCCc1ccccc1`, the relative cell viability amounted to 0.777 ± 0.0059.

Turning to `Cc1nnc(C(=O)NC(C)(C)c2nc(C(=O)NCc3ccc(F)cc3)c(O)c(=O)n2C)o1` [Raltegravir (MK-0518)], the relative cell viability was found to be 0.842 ± 0.12.

`CN1CCC(=C2c3ccccc3C=Cc3ccccc32)CC1` [Cyproheptadine HCl] had a relative cell viability of 0.958 ± 0.17.

Consider `N=C(N)NC(=N)NCCc1ccccc1` [Phenformin HCl], for which the relative cell viability was 0.9814 ± 0.0047.

For the compound `CO[C@H]1/C=C/O[C@@]2(C)Oc3c(C)c(O)c4c(O)c(c(/C=N/N5CCN(C6CCCC6)CC5)c(O)c4c3C2=O)NC(=O)/C(C)=C\C=C\[C@H](C)[C@H](O)[C@@H](C)[C@@H](O)[C@@H](C)[C@H](OC(C)=O)[C@@H]1C` [Rifapentine], the relative cell viability is 1.08 ± 0.022.

`C[C@@H](Oc1ccc2[nH]nc(/C=C/c3cnn(CCO)c3)c2c1)c1c(Cl)cncc1Cl` showed a relative cell viability of 0.712 ± 0.01.

As for `CNC1CCCN(c2c(F)cc3c(=O)c(C(=O)O)cn(C4CC4)c3c2OC)C1` (stereo not given) [Balofloxacin], the relative cell viability amounted to 1.08 ± 0.015.

Regarding `CC[C@H]1[C@@H](O)[C@@H]2[C@H](CC[C@]3(C)[C@@H]([C@H](C)CCC(=O)O)CC[C@@H]23)[C@@]2(C)CC[C@@H](O)C[C@@H]12` [Obeticholic Acid], the relative cell viability was 1.022 ± 0.0042.

With `CCCc1cc(C(N)=S)ccn1` [Protionamide], the relative cell viability is 1.11 ± 0.028.

Compound `COc1cccc2c1c(O)c(C(=O)N(C)c1ccc(C(F)(F)F)cc1)c(=O)n2C` [Tasquinimod] came in with a relative cell viability of 1.036 ± 0.0025.

In the case of `CC(=O)S[C@@H]1CC2=CC(=O)CC[C@]2(C)[C@H]2CC[C@@]3(C)[C@@H](CC[C@@]34CCC(=O)O4)[C@H]12` [Spironolactone], the relative cell viability worked out at 1.02 ± 0.13.

Compound `C#Cc1cccc(Nc2ncnc3cc(OC)c(OCCCCCCC(=O)NO)cc23)c1` had a relative cell viability of 0.502 ± 0.023.

The compound `O=C(O)[C@]1(Cc2cccc(Nc3nccs3)n2)CC[C@@H](Oc2cccc(Cl)c2F)CC1` yielded a relative cell viability of 0.99 ± 0.085.

The compound `COc1cc2c(Nc3ccc(NC(=O)c4ccccc4)cc3)ncnc2cc1OCCCN1CCOCC1` returned a relative cell viability of 0.973 ± 0.043.

The compound `CC(=O)Nc1ccc(C(=O)Nc2ccccc2N)cc1` [CI994 (Tacedinaline)] returned a relative cell viability of 1 ± 0.017.

For `CC(C)(C)c1cnc(CSc2cnc(NC(=O)C3CCNCC3)s2)o1`, the relative cell viability was found to be 0.413 ± 0.028.

With `CCN[C@H]1CN(CCCOC)S(=O)(=O)c2sc(S(N)(=O)=O)cc21` [Brinzolamide], the relative cell viability came to 0.905 ± 0.073.

For `CC(C)c1c(C(=O)Nc2ccccc2)c(-c2ccccc2)c(-c2ccc(F)cc2)n1CC[C@@H](O)C[C@@H](O)CC(=O)O` [Atorvastatin Calcium], the relative cell viability came out at 1.119 ± 0.004.

The compound `COC(=O)Nc1nc2cc(C(=O)c3cccs3)ccc2[nH]1` [Nocodazole] came in with a relative cell viability of 0.8892 ± 0.0028.

Regarding `CC(=Cc1ccc(C(=O)O)cc1)c1ccc2c(c1)C(C)(C)CCC2(C)C` [TTNPB (Arotinoid Acid)], the relative cell viability turned out to be 0.982 ± 0.074.

For `COc1cc(Br)c(Nc2nc(-c3c(C)nc4ncccn34)cs2)c(Br)c1`, the relative cell viability was 0.723 and 0.735.

For `O=C(NC[C@H](O)CN1CCc2ccccc2C1)c1cc(NC2COC2)ncn1`, the relative cell viability is 0.987 ± 0.067.

`COc1cc2ncnc(Sc3nnc(C)s3)c2cc1OC` came in with a relative cell viability of 1.11 ± 0.035.

`Cc1ccc(S(=O)(=O)c2ccc([N+](=O)[O-])o2)cc1` came in with a relative cell viability of 0.286 ± 0.0092.

The compound `O=C1NC(=O)C(c2cnc3ccccn23)=C1c1cn2c3c(cc(F)cc13)CN(C(=O)N1CCCCC1)CC2` returned a relative cell viability of 1.019 ± 0.0032.

On to `OC(Cn1cncn1)(Cn1cncn1)c1ccc(F)cc1F` [Fluconazole], for which the relative cell viability is 1.19 ± 0.095.

For `NCCc1c[nH]cn1` [Histamine 2HCl], the relative cell viability worked out at 1.09 ± 0.029.

Compound `C[C@@H](NCCCc1cccc(C(F)(F)F)c1)c1cccc2ccccc12` [Cinacalcet HCl] yielded a relative cell viability of 0.874 ± 0.014.

In the case of `CC(=O)Nc1cccc(-n2c(=O)n(C3CC3)c(=O)c3c(Nc4ccc(I)cc4F)n(C)c(=O)c(C)c32)c1`, the relative cell viability was found to be 0.577 ± 0.022.

Take `Nc1[nH]cnc2ncnc1-2` [Adenine HCl]: the relative cell viability is 1.15 ± 0.017.

In the case of `CC(C(=O)O)c1cccc(Oc2ccccc2)c1` (stereo not given) [Fenoprofen Calcium], the relative cell viability turned out to be 0.983 ± 0.026.

`CC(C(=O)O)c1cccc(Oc2ccccc2)c1` (stereo not given) [Fenoprofen calcium hydrate] showed a relative cell viability of 1.07 ± 0.065.

With `COCCOc1nc(-c2ccc(Cl)c(Cl)c2)n(-c2ccc(NC(=O)CCl)cc2)n1` [MI-2 (MALT1 inhibitor)], the relative cell viability worked out at 0.808 ± 0.069.

Take `CCCc1ncc(C[n+]2ccccc2C)c(N)n1` [Amprolium HCl]: the relative cell viability came out at 1.107 ± 0.0088.

Compound `O=C1NC(=O)C(c2ccccc2[N+](=O)[O-])=C1Nc1ccc(O)c(Cl)c1` came in with a relative cell viability of 1.11 ± 0.11.

For `O=C(O)C(Cc1ccccc1[N+](=O)[O-])=NNc1nc(-c2ccc(Cl)c(Cl)c2)cs1`, the relative cell viability is 1.21 ± 0.024.

On to `OC[C@@H](O)[C@@H](O)[C@H](O)[C@H](O)CO` [D-Mannitol], for which the relative cell viability was 1.11 ± 0.013.

`C[C@H](NCc1ccc(OCc2cccc(F)c2)cc1)C(N)=O` [Safinamide Mesylate] came in with a relative cell viability of 1.22 ± 0.038.

`CC(=O)OCC(=O)NCCCOc1cccc(CN2CCCCC2)c1` [Roxatidine Acetate HCl] registered a relative cell viability of 1.1 ± 0.052.

Take `CCn1cc(C(=O)O)c(=O)c2cc(F)c(N3CCNCC3)nc21` [Enoxacin]: the relative cell viability was determined as 0.925 ± 0.026.

For the compound `CNc1ncnc2c1ncn2[C@@H]1O[C@H](CO)[C@@H](O)[C@H]1O` [N6-methyladenosine (m6A)], the relative cell viability worked out at 0.9679 ± 0.0062.

In turn, `CC(C)OC(=O)C(C(=O)OC(C)C)=C1SC=CS1` [Malotilate] registered a relative cell viability of 1.077 ± 0.009.

Compound `c1ccc2c(c1)CCCC2C1=NCCN1` (stereo not given) [Tetrahydrozoline HCl] displayed a relative cell viability of 1.1 ± 0.066.

For the compound `C=C(C)[C@@H]1CC[C@]2(C(=O)O)CC[C@]3(C)[C@H](CC[C@@H]4[C@@]5(C)CC[C@H](O)C(C)(C)[C@@H]5CC[C@]43C)[C@@H]12` [Betulinic acid], the relative cell viability was determined as 0.993 ± 0.17.

As for `C1N2CN3CN1CN(C2)C3` [Methenamine], the relative cell viability turned out to be 1.13 ± 0.084.

The compound `CCCCCOc1ccc(-c2ccc(-c3ccc(C(=O)N[C@H]4C[C@@H](O)[C@@H](O)NC(=O)[C@@H]5[C@@H](O)[C@@H](C)CN5C(=O)[C@H]([C@@H](C)O)NC(=O)[C@H]([C@H](O)[C@@H](O)c5ccc(O)cc5)NC(=O)[C@@H]5C[C@@H](O)CN5C(=O)[C@H]([C@@H](C)O)NC4=O)cc3)cc2)cc1` came in with a relative cell viability of 1.05 ± 0.013.

Regarding `CC(C)c1nc(N(C)S(C)(=O)=O)nc(-c2ccc(F)cc2)c1/C=C/[C@@H](O)C[C@@H](O)CC(=O)O` [Rosuvastatin Calcium], the relative cell viability was determined as 0.961 ± 0.03.

`O=C(COc1cccc2c(=O)[nH]ccc12)c1ccccc1` displayed a relative cell viability of 1.19 ± 0.027.

On to `CC(=O)N[C@@H](CC(C)C)C(=O)N[C@@H](CC(C)C)C(=O)N[C@H](C=O)CCCNC(=N)N` [Leupeptin Hemisulfate], for which the relative cell viability turned out to be 1.09 ± 0.015.

As to `CS(=O)(=O)c1ccc([C@@H](O)[C@@H](CF)NC(=O)C(Cl)Cl)cc1` [Florfenicol], the relative cell viability was 1.18 ± 0.079.

For `NC(=O)N1CCC(CC(=O)N2CCC([C@H]3c4ncc(Br)cc4CCc4cc(Cl)cc(Br)c43)CC2)CC1` [Lonafarnib], the relative cell viability amounted to 1.06 ± 0.049.

`C[C@H](N[C@@H](CCc1ccccc1)C(=O)O)C(=O)N1CCC[C@H]1C(=O)O` [Enalaprilat Dihydrate] showed a relative cell viability of 1.12 ± 0.029.

For `O=C(Nc1cc(C(F)(F)F)cc(C(F)(F)F)c1)c1cc(Cl)ccc1O`, the relative cell viability was 0.18 ± 0.0024.

In turn, `COC(=O)[C@H](c1ccccc1Cl)N1CCc2sccc2C1` [Clopidogrel] gave a relative cell viability of 1.237 ± 0.0085.

As for `COCCCC/C(=N\OCCN)c1ccc(C(F)(F)F)cc1` [Fluvoxamine maleate], the relative cell viability worked out at 1.21 ± 0.041.

Compound `CC1(C)CCC(c2ccc(Cl)cc2)=C(CN2CCN(c3ccc(C(=O)NS(=O)(=O)c4ccc(N[C@H](CCN5CCOCC5)CSc5ccccc5)c(S(=O)(=O)C(F)(F)F)c4)cc3)CC2)C1` [ABT-263 (Navitoclax)] had a relative cell viability of 0.911 ± 0.11.

With `O=C(COc1ccc(C(=O)c2ccccc2)cc1)NC1CCN(Cc2ccccc2)CC1` [AdipoRon], the relative cell viability is 1.047 ± 0.009.

As to `Nc1nc(F)nc2c1ncn2[C@@H]1O[C@H](COP(=O)(O)O)[C@@H](O)[C@@H]1O` [Fludarabine Phosphate], the relative cell viability came to 0.214 ± 0.058.

Compound `O=C(NOCC1CC1)c1ccc(F)c(F)c1Nc1ccc(I)cc1Cl` had a relative cell viability of 0.76 ± 0.067.

`Oc1c(Br)cc(Br)c2cccnc12` [Broxyquinoline] had a relative cell viability of 1.15 ± 0.051.

Regarding `Nc1ccc2ncnc(NCCc3ccc(Oc4ccccc4)cc3)c2c1`, the relative cell viability came out at 0.896 ± 0.039.

`CN1CCN(S(=O)(=O)c2ccc(-c3cnc(N)c(C(=O)Nc4cccnc4)n3)cc2)CC1` displayed a relative cell viability of 0.961 ± 0.12.

`COc1ccc(-c2coc3cc(O)ccc3c2=O)cc1` [Formononetin] registered a relative cell viability of 0.901 ± 0.044.

As for `CNc1nc(-c2ccc3c(N)n[nH]c3c2)cc(N2C[C@@H](C(=O)NC3CCCCC3)CC[C@H]2C)n1`, the relative cell viability came to 1.05 ± 0.037.

`O=C1C(c2c(O)[nH]c3ccccc23)=Nc2ccccc21` [Indirubin] came in with a relative cell viability of 0.947 ± 0.059.

Compound `CS(=O)(=O)c1ccc(C(=O)Nc2ccc(Cl)c(-c3ccccn3)c2)c(Cl)c1` [Vismodegib (GDC-0449)] yielded a relative cell viability of 1.24 ± 0.066.

Consider `Cc1ccc2c(c1)C(=O)C1(O)CCN(c3ccccc3)C1=N2` (single isomer, unassigned; (-)) [(-)-Blebbistatin], for which the relative cell viability came to 1.11 ± 0.029.

Take `CC(C)C[C@H](NC(=O)[C@H](Cc1ccccc1)NC(=O)c1cnccn1)B(O)O` [Bortezomib (PS-341)]: the relative cell viability came out at 0.09 ± 0.011.

In turn, `COc1ccc(CC(C)NCC(O)c2ccc(O)c(NC=O)c2)cc1` (stereo not given) [Formoterol Hemifumarate] showed a relative cell viability of 1.11 ± 0.1.
